Measured values as given in a collection of fitness landscapes (doi:10.1038/s41467-024-54723-y).
In all, about 18,000 sequences were measured (“TetR repression strength (sort-seq, GFP reporter)”: median about 0.23, highest 2% from about 0.68 on). Some of the results follow.

The sequences below were run against TetR (class B, Tn10) (UniProt P04483) (assay: TetR repression strength (sort-seq, GFP reporter) (relative to tetO2 = 1); higher = stronger repression). Details: E. coli.
Method in brief: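 In LB with 50 µg/mL chloramphenicol, E. coli SIG10-MAX holding a low-copy library with eight randomized operator positions between a constitutive promoter and sfGFP, plus constitutive TetR, grew for 5 h at 37 °C. FACS then sorted 10^6 cells into 13 fluorescence bins for Illumina sequencing of each bin. Repression strength equals the top bin index plus one less the read-weighted mean bin, normalized to the unaltered operator. Values from three independent transformations were averaged when reads were ≥30 in every replicate and the CV was ≤0.5.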

Sequence of UniProt P04483 (P04483 whole entry): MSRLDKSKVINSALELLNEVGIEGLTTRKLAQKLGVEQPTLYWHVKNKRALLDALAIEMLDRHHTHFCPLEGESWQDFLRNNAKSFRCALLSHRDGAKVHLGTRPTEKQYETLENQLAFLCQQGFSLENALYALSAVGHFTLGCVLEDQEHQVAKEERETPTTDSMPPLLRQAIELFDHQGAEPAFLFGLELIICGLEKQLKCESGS

Sequence | TetR repression strength
TCCCGCGAAGTGTGTGAGA | 0.233
TCCCAAGCAGTGGTTGAGA | 0.189
TCCCTAGGAGTTCAAGAGA | 0.22
TCCCTGACAGTGGCTGAGA | 0.199
TCCCGAACAGTGGGTGAGA | 0.949
TCCCTGGGAGTGAATGAGA | 0.189
TCCCGCGGAGTCATTGAGA | 0.403
TCCCTACGAGTGGCCGAGA | 0.256
TCCCAATTAGTGGGGGAGA | 0.0942
TCCCGAAAAGTATTTGAGA | 0.171
TCCCCTTAAGTGAGAGAGA | 0.251
TCCCATTTAGTGCGAGAGA | 0.279
TCCCGGCGAGTGGGAGAGA | 0.252
TCCCGGAAAGTAGCAGAGA | 0.0718
TCCCGGGGAGTTCGGGAGA | 0.307
TCCCGCCTAGTGGCGGAGA | 0.306
TCCCAACAAGTTCGTGAGA | 0.33
TCCCGTGGAGTGGACGAGA | 0.105
TCCCAGATAGTAAACGAGA | 0.404
TCCCGTGAAGTCAGAGAGA | 0.266
TCCCGTCGAGTGCATGAGA | 0.196
TCCCAGCAAGTTGTGGAGA | 0.222
TCCCGGCAAGTCAGCGAGA | 0.0946
TCCCGATAAGTACGTGAGA | 0.107
TCCCGTGCAGTGCCCGAGA | 0.361
TCCCCGTGAGTGGCGGAGA | 0.0581

Sequence | TetR repression strength
TCCCACGGAGTTGGCGAGA | 0.123
TCCCCCTGAGTTATCGAGA | 0.168
TCCCTTCGAGTCGTTGAGA | 0.352
TCCCCGTGAGTGTATGAGA | 0.189
TCCCGCGGAGTTTGAGAGA | 0.245
TCCCTTGGAGTATTCGAGA | 0.162
TCCCTTTGAGTAAAAGAGA | 0.232
TCCCGTTTAGTGTTCGAGA | 0.114
TCCCGGGTAGTAAGCGAGA | 0.403
TCCCTAGAAGTTATCGAGA | 0.275
TCCCAGCTAGTGAAGGAGA | 0.64
TCCCTGGGAGTAGACGAGA | 0.144
TCCCGCGGAGTTTCCGAGA | 0.449
TCCCTAAGAGTGAAGGAGA | 0.434
TCCCGCGCAGTGAGGGAGA | 0.216
TCCCGGCCAGTCTGTGAGA | 0.102
TCCCTTGGAGTCAATGAGA | 0.337
TCCCTGCAAGTACGTGAGA | 0.236
TCCCTATCAGTGAACGAGA | 0.862
TCCCATCAAGTAAGTGAGA | 0.242
TCCCATAGAGTGATAGAGA | 0.438
TCCCTAAGAGTCGGCGAGA | 0.215
TCCCAGATAGTACGAGAGA | 0.165
TCCCTTATAGTGCCTGAGA | 0.162
TCCCGGGGAGTCCAAGAGA | 0.195
TCCCTGCTAGTCTGCGAGA | 0.116

Sequence | TetR repression strength
TCCCGCGGAGTCACGGAGA | 0.396
TCCCGGAAAGTGGTTGAGA | 0.142
TCCCGCGGAGTCGGTGAGA | 0.186
TCCCGGGTAGTGATTGAGA | 0.312
TCCCGATCAGTGACCGAGA | 0.715
TCCCAGTGAGTGCTCGAGA | 0.0229
TCCCTCGGAGTGGCCGAGA | 0.134
TCCCTTGAAGTGTAGGAGA | 0.0837
TCCCGGCTAGTCACTGAGA | 0.256
TCCCGGCGAGTCGTAGAGA | 0.0801
TCCCCTTTAGTGAAGGAGA | 0.0558
TCCCGGACAGTAAGAGAGA | 0.322
TCCCGCTCAGTAGGGGAGA | 0.2
TCCCGGCAAGTGACGGAGA | 0.22
TCCCTGTCAGTTGGGGAGA | 0.324
TCCCGGGGAGTCGCCGAGA | 0.573
TCCCAATGAGTCAATGAGA | 0.207
TCCCATTAAGTACGCGAGA | 0.0452
TCCCTTGAAGTTTGGGAGA | 0.216
TCCCGTCAAGTTGGGGAGA | 0.236
TCCCAATTAGTCGAGGAGA | 0.509
TCCCATTCAGTGGGGGAGA | 0.294
TCCCTCATAGTGATGGAGA | 0.22
TCCCTTAGAGTTTCTGAGA | 0.295
TCCCCGCGAGTCAACGAGA | 0.495
TCCCGGTGAGTTCGGGAGA | 0.181

Sequence | TetR repression strength
TCCCGCGTAGTACTTGAGA | 0.215
TCCCGGTCAGTGCTGGAGA | 0.378
TCCCAGCCAGTGTTAGAGA | 0.518
TCCCGTAGAGTTTAAGAGA | 0.23
TCCCATTGAGTAATGGAGA | 0.191
TCCCGTAGAGTGGTTGAGA | 0.284
TCCCTACAAGTAGCGGAGA | 0.27
TCCCAGCGAGTGCCGGAGA | 0.141
TCCCAATTAGTAGCCGAGA | 0.518
TCCCATTCAGTATCTGAGA | 0.252
TCCCAATGAGTAGTAGAGA | 0.0915
TCCCATGGAGTGTGGGAGA | 0.244
TCCCTACCAGTAATCGAGA | 0.278
TCCCCAATAGTCCCGGAGA | 0.112
TCCCCCAGAGTGAGGGAGA | 0.185
TCCCTGTTAGTAATTGAGA | 0.123
TCCCTGAAAGTGAGAGAGA | 0.16
TCCCGCTTAGTGCCCGAGA | 0.22
TCCCCCTGAGTACAGGAGA | 0.0444
TCCCAACAAGTGAAGGAGA | 0.0518
TCCCTCCCAGTGTTAGAGA | 0.313
TCCCGTATAGTCTGCGAGA | 0.361
TCCCCAAGAGTCGGGGAGA | 0.171
TCCCTGGGAGTTGACGAGA | 0.013
